Consider two molecules from patent US20250281632A1, “LGALS3BP ANTIBODY-DRUG-CONJUGATE AND ITS USE FOR THE TREATMENT OF CANCER” (MEDIAPHARMA S.R.L., priority 2018, published 2025).

The nature of data set [1]: Single i.v. injection safety observation in cross-breed rabbits. As to conditions: 5 mg/Hg single i.v. injection, observation until day 7. The class given is in vivo. The source says:
The 1959-sss-DM3 ADC of the present invention and the pharmaceutical composition containing this 1959-sss-DM3 ADC have an excellent safety profile.

Data set [2] concerns the target T1, LGALS3BP (Homo sapiens, UniProt Q08380).
T1 sequence (Q08380 19-585): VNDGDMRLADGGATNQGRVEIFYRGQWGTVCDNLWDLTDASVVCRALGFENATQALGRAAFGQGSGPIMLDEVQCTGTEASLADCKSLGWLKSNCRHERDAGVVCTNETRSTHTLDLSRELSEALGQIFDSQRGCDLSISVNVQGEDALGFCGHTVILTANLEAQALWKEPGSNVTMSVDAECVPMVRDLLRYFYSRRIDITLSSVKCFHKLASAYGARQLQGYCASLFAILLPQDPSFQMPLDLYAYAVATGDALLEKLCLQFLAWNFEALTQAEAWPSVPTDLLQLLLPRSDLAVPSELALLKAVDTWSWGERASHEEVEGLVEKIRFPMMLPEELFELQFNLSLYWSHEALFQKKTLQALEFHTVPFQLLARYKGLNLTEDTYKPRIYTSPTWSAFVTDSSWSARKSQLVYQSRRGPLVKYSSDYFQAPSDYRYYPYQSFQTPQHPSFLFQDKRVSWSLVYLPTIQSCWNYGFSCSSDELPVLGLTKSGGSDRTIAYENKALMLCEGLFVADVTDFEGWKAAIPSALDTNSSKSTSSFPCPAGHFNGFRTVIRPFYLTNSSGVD
Kind of data set: ELISA binding to plate-coated human recombinant LGALS3BP. As to conditions: LGALS3BP coated at 2 μg/ml, read at 492 nm (FIG. 11). On the procedure: Human recombinant LGALS3BP (2 μg/ml) was pre-coated overnight at 4° C. on 96 well-plates NUNC Maxisorp modules. After blocking with 1% BSA in PBS containing 0.1% Tween-20 for 1 hour at room temperature, unconjugated 1959-sss antibody or 1959-sss-DM3 was added and incubated at the indicated concentration for 2 hours at room temperature. After several washes with PBS-0, 1% Tween-20, anti-human IgG-HRP was added and incubated for 1 hour at room temperature. After washes, stabilized chromogen was added for at least 10 minutes in the dark, before stopping the reaction with the addition of 1 N H2SO4. The resulting color was read at 492 nm with an Elisa reader.
Background: In an ELISA, binding on a coated surface is turned into a signal by an enzyme label.

Another data set relates to A375 melanoma xenografts. The data set can be described thus: Human A375 melanoma xenograft model in nude mice. The class given is in vivo, CD-1 nu/nu mice. As to conditions: for CR (not palpable tumor), number of mice / Cut off (TV about 1.5 cm^3), number of mice / survival vs control mice: 5 injections; for CR (not palpable tumor), number of mice / Cut off (TV about 1.5 cm^3), number of mice: at 140 days from start of treatment; for therapeutic activity (tumor growth): Example 14: 10 mg/kg i.v. daily for 5 days, 1959-sss DM3 vs control P<0.00001 (FIG. 14). On the procedure:
Human melanoma xenografts were established by injecting subcutaneously 5×10^6 A375 cells in 5-6 week old CD-1 nu/nu mice nude mice. When the average tumor size within a group was approximately 100 mm^3, mice were divided into four groups in a manner to provide a similar range of tumor size in each group. The groups were treated with PBS (control), unconjugated 1959-sss antibody (10 mg/kg), 1959-sss-DM1 (10 mg/kg), or 1959-sss-DM3 (10 mg/kg). Treatments were administered by intravenous injection daily for 5 days (arrows). Tumor volumes were calculated according to the following formula: tumor volume=(length*width^2)/2. Tumor volumes were monitored every week. A, tumor growth curves. The data represent mean tumor volume (±SEM), n=5 or 6 mice/group. B, body weight of mice groups shown in panel A.
A, growth of subcutaneously implanted human A375 melanoma xenografts in nude mice treated with PBS (control), 1959-sss-DM3 (10 mg/kg) daily or twice a week (t/w) for a total of 5 injections, or 1959-sss-DM4 (10 mg/Kg) t/w for a total of 5 injections. The data represent mean tumor_volume (±SEM), n=5 or 6 mice/group. B, Kaplan-Meyer plot showing survival of the treatment groups shown in panel A.
Growth of subcutaneously implanted human A375 melanoma xenografts in nude mice treated with PBS (control), or 1959-sss-DM3 at 10, 3 or 1 mg/Kg t/w for a total of 5 injections.

Data set [3] has as its system SKNAS cells (LGALS3BP-positive) derived xenograft. The data set can be described thus: SKNAS (LGALS3BP-positive) neuroblastoma xenograft model. The class given is in vivo, mice. On the procedure: (§1) A) SKNAS cells (LGALS3BP-positive) and hNB cells (LGALS3BP-negative) derived xenograft models were generated by subcutaneous injection into the right flank of mice of 3×10^6 of cells in 200 μl of PBS. When xenografts became palpable, animals were divided into 2 groups in a way to provide a similar range of tumor size for each group. The treated group received 4 intravenous injections twice weekly of 1959-sss/DM3 (10 mg/kg) whereas the control group received PBS only. Tumor volume was monitored every week by a caliper and calculated by the following formula: tumor volume (mm^3)=(length×width^2)/2. A tumor volume of 2 cm^3 was chosen as endpoint for both experiments after which mice were sacrificed. Survival curves were derived from Kaplan-Meier estimates and compared by log-rank test (GraphPad Prism 5). B) 1959-sss/DM3 accumulation in tumour tissues was evaluated by immunofluorescence analysis of SKNAS and hNB tumour xenografts. Animals bearing tumours received a single injection of 1959-sss/DM3 at the dose of 10 mg/kg and thereafter animals were sacrificed 72 h later. Fresh tumour tissues were frozen in a cryo-embedding medium and cryostat sections were stained with anti CD31/CD105 antibodies (red) to visualize blood vessels; cells nuclei were stained by DRAQ5 (blue). Scale bars: 50 μm.

Data set [4] has as its system hNB cells (LGALS3BP-negative) derived xenograft. The data set can be described thus: hNB (LGALS3BP-negative) neuroblastoma xenograft model. The class given is in vivo, mice. On the procedure: as §1
Data set [5] deals with SKNAS and Kelly neuroblastoma cells. The data set can be described thus: Experimental metastasis assay in neuroblastoma cell models. The class given is in vivo, NSG mice. As to conditions: 10 mg/kg i.v., 4 injections twice weekly, started 14 days after cell injection. On the procedure: Schematic representation of experimental metastasis assays (A) performed in SKNAS (B) and Kelly (C) neuroblastoma cell models. Eight-weeks old NSG mice were injected in the tail vein with neuroblastoma cells, the intravenous treatments (1959-sss/DM3 or free DM3 at the indicated doses, PBS as control) were started after 14 days from the injection for 4 injections twice weekly. After 28 days, mice were sacrificed, and organs (liver, kidney, lung and bone marrow) were processed for metastasis analysis. Liver, kidney and lung were harvested, fixed in 10% neutral buffered formalin, paraffin embedded, sectioned and stained with Hematoxylin and Eosin. All neuroblastoma metastatic lesions were analyzed and plotted on graphs (above). Representative images are shown (below). As regards bone marrow analysis, femora and tibiae were cut out from mice after sacrifice, soft tissue were accurately removed and bone marrow cells suspension was collected into a tube by flushing the shaft with 1 ml of cold PBS using a 1 ml syringe with needle. Bone marrow cells were resuspended and washed several times, then cells were stained with an anti-human-GD2 followed by fluorescent secondary antibody for flow cytometry analysis. Percentage of GD2 positive cells is shown in the dot plot.

Data set [6] can be described thus: Pharmacokinetics in mouse serum (total antibody by sandwich ELISA). The class given is in vivo, Athymic CD-1 nu/nu mice. As to conditions: single i.v. dose 10 mg/kg. On the procedure:
Non-tumour bearing Athymic CD-1 nu/nu mice were injected intravenously with a single dose of 1959-sss/DM3 (10 mg/kg) and blood samples collected at different time points thereafter. Serum concentrations of total antibody were measured by sandwich ELISA using as capture antigen recombinant LGALS3BP and goat anti-human IgG-HRP for detection. Half-time (t1/2) and AUC values were obtained by Kinetica 5.0 software.

In data set [7] the target is T1, LGALS3BP. Kind of data set: Confocal immunofluorescence staining of human tumor cell lines and normal fibroblasts. The format is cell-based. More on the design: endogenous in cells; host or cells: A3: MDA-MB-231, A375, FADU, HBF normal bronchial fibroblasts; A5: neuroblastoma lines Kelly, SKNAS, hNB. To be noted: MDA-MB-231, A375, FADU tumor cells vs HBF normal bronchial fibroblasts; 2 hours incubation (FIG. 12). On the procedure: Human tumor cells were grown on glass coverslips for 24 hours. Coverslips were incubated for 2 hours at room temperature with 1959-sss or 1959-sss-DM3 3. At the end of incubation, cells were fixed in 4% paraformaldehyde for 15 minutes at room temperature, permeabilized with 0.25% Triton X-100 for 5 minutes, and blocked with 0.1% BSA for 1 hour at room temperature. Coverslips were then incubated with anti-human IgG-Alexa Fluor 488 conjugated. DRAQ5 was used to visualize nuclei. Images were acquired with a Zeiss LSM 510 meta-confocal microscopy using 488- and 633-nm lasers. • A, C, E, G, unconjugated 1959-sss; B, D, F, H, 1959-sss-DM3. • A-B; MDA-MB-231 breast cancer; C-D, A375 melanoma; E-F, FADU, H&N cancer; G-H, HBF, normal bronchial fibroblasts.

B1: 1959-sss-DM3 (conjugate)
heavy: QVQLQESGPGLVKPSETLSLTCAVSGYSISSGYYWTWIRQPPGKGLEWIGYITYDGKNNYSPSLKNRVTISVDTSKNQFSLKLSSVTAADTAVYYCAREGSSVITTGFTFWGQGTLVTVSSASTKGPSVFPLAPSSKSTSGGTAALGCLVKDYFPEPVTVSWNSGALTSGVHTFPAVLQSSGLYSLSSVVTVPSSSLGTQTYICNVNHKPSNTKVDKKV[human IgG1 Fc with changes not written out]
light: DIQMTQSPSTLSASVGDRVTITCSASSRVSYMYWYQQKPGKAPKLLIYLTSNLASGVPARFSGSGSGTEFTLTISSLQPDDFATYYCQQWTSHPPTFGQGTKVEVKRTVAAPSVFIFPPSDEQLKSGTASVVCLLNNFYPREAKVQWKVDNALQSGNSQESVTEQDSKDSTYSLSSTLTLSKADYEKHKVYACEVTHQGLSSPVTKSFNRGEC
With B1, the toxicity findings entry in data set [1] was “no toxicity findings were observed”. Also, the “binding behaviour to LGALS3BP” value with LGALS3BP [2] is recorded as “same binding behaviour”. Further, the “CR (not palpable tumor), number of mice” value was 0 with A375 melanoma xenografts (10 mg/kg daily) and 5/6 in the data set with A375 melanoma xenografts (10 mg/kg t/w). Also, the “Cut off (TV about 1.5 cm^3), number of mice” value is given as 5/6 with A375 melanoma xenografts (10 mg/kg daily) and 1/6 in the data set with A375 melanoma xenografts (10 mg/kg t/w). Also, in the data set on A375 melanoma xenografts, the “therapeutic activity (tumor growth)” value is recorded as “significantly inhibited tumor growth”. Besides, the “survival vs control mice” value is on record as “survived longer than control mice” in the data set with A375 melanoma xenografts (Example 15: 10 mg/kg daily, vs control P<0.0001) and “survived longer than control mice” with A375 melanoma xenografts (Example 15: 10 mg/kg twice a week (t/w), vs control P<0.00001). Moreover, the “inhibition of tumor growth” value with A375 melanoma xenografts (Example 15: 10 mg/kg, total of 5 injections (DM3 daily or t/w, DM4 t/w) (FIG. 15)) was “significant inhibition of tumor growth”. Besides, the “accumulation in tumor tissue (immunofluorescence)” value in data set [3] (LGALS3BP-positive tumor, 72 hours after single i.v. injection of 10 mg/kg) is recorded as “shows accumulation”; in data set [4] (LGALS3BP-negative tumor, 72 hours after single i.v. injection of 10 mg/kg), “but not LGALS3BP-negative tumor tissues shows accumulation”. For the same molecule, the tumor shrinkage entry is “induces shrinkage” in data set [3] (LGALS3BP-positive xenografts, 10 mg/kg i.v., 4 injections twice weekly) and “induces shrinkage in LGALS3BP-positive but not negative” in data set [4] (LGALS3BP-negative xenografts, 10 mg/kg i.v., 4 injections twice weekly). In addition, in data set [5], the “formation of neuroblastoma metastatic lesions” value is “potently inhibits formation of neuroblastoma metastatic lesions”. For the same molecule, in data set [6], the “Half-time (t1/2)” value is listed as “around 97.9 hours”. For the same molecule, in the data set with LGALS3BP [7], the “staining at the cell membrane” value is on record as “staining at the cell membrane of human tumor cells, but not normal cells”.

B2: 1959-sss (antibody)
heavy: QVQLQESGPGLVKPSETLSLTCAVSGYSISSGYYWTWIRQPPGKGLEWIGYITYDGKNNYSPSLKNRVTISVDTSKNQFSLKLSSVTAADTAVYYCAREGSSVITTGFTFWGQGTLVTVSSASTKGPSVFPLAPSSKSTSGGTAALGCLVKDYFPEPVTVSWNSGALTSGVHTFPAVLQSSGLYSLSSVVTVPSSSLGTQTYICNVNHKPSNTKVDKKV[human IgG1 Fc with changes not written out]
light: DIQMTQSPSTLSASVGDRVTITCSASSRVSYMYWYQQKPGKAPKLLIYLTSNLASGVPARFSGSGSGTEFTLTISSLQPDDFATYYCQQWTSHPPTFGQGTKVEVKRTVAAPSVFIFPPSDEQLKSGTASVVCLLNNFYPREAKVQWKVDNALQSGNSQESVTEQDSKDSTYSLSSTLTLSKADYEKHKVYACEVTHQGLSSPVTKSFNRGEC
B2: the “binding behaviour to LGALS3BP” value in the data set with LGALS3BP [2] is listed as “same binding behaviour”. For the same molecule, the “therapeutic activity (tumor growth)” value with A375 melanoma xenografts is recorded as “no therapeutic activity”. For the same molecule, the “staining at the cell membrane” value with LGALS3BP [7] was “staining at the cell membrane of human tumor cells, but not normal cells”.
